# Measured values from the supplement of paper PMC12067230.
# The data scatter; read single values as rough.
# Experiment: amyloid nucleation score relative to library mode (yeast Sup35 reporter selection) (log enrichment difference); higher = more amyloid nucleation; sequences are the first 22 residues of the Bri2 peptide extended by up to 12 random residues
# Details: random library (experiment): 1;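 active = nucleation score significantly above 0 at FDR 0.05; inactive = not significantly above 0 or absent from output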
# 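Note: [psi-pin-] Saccharomyces cerevisiae expressing SupN fusions, induced by 100 µM Cu2SO4, selected 7 d at 30 °C without adenine and uracil, scored by deep sequencing of output versus input.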
row,Sequence,amyloid nucleation score
1,EASNCFAIRHFENKFAVETLICVDSADGLCAHAL,inactive
2,EASNCFAIRHFENKFAVETLICVDSAFGLETSRK,inactive
3,EASNCFAIRHFENKFAVETLICVDSHCYNKASGD,inactive
4,EASNCFAIRHFENKFAVETLICVDSQGLVMRRVP,4.02
5,EASNCFAIRHFENKFAVETLICVDSRR,inactive
6,EASNCFAIRHFENKFAVETLICVDSSMSASTSLS,inactive
7,EASNCFAIRHFENKFAVETLICVDTLIRTHYALL,inactive
8,EASNCFAIRHFENKFAVETLICVDVLSTRRFETA,inactive
9,EASNCFAIRHFENKFAVETLICVDVLWWNKMYEA,3.7
10,EASNCFAIRHFENKFAVETLICVDVTMFGRVSNG,inactive
11,EASNCFAIRHFENKFAVETLICVDVTQVGNKGTT,1.18
12,EASNCFAIRHFENKFAVETLICVDWGKM,3.12
13,EASNCFAIRHFENKFAVETLICVDWSNVGYSRAQ,3.24
14,EASNCFAIRHFENKFAVETLICVDYKLCWFNP,4.28
15,EASNCFAIRHFENKFAVETLICVDYKVLGSTTVH,inactive
16,EASNCFAIRHFENKFAVETLICVDYQKRGCPRSH,inactive
17,EASNCFAIRHFENKFAVETLICVEAGPSM,inactive
18,EASNCFAIRHFENKFAVETLICVECDTSKKNGTV,1.06
19,EASNCFAIRHFENKFAVETLICVEEG,0.556
20,EASNCFAIRHFENKFAVETLICVEFGQE,inactive

row,Sequence,amyloid nucleation score
1,EASNCFAIRHFENKFAVETLICVEGMVTRVVVTE,inactive
2,EASNCFAIRHFENKFAVETLICVEGRSVRYGGAG,inactive
3,EASNCFAIRHFENKFAVETLICVEIGYYQVVTCR,inactive
4,EASNCFAIRHFENKFAVETLICVELRATVQPWVS,inactive
5,EASNCFAIRHFENKFAVETLICVELYTCGESLVS,inactive
6,EASNCFAIRHFENKFAVETLICVENWRGGEVGVW,inactive
7,EASNCFAIRHFENKFAVETLICVEQWGFDLSQEP,inactive
8,EASNCFAIRHFENKFAVETLICVERVGLRIMLD,inactive
9,EASNCFAIRHFENKFAVETLICVES,inactive
10,EASNCFAIRHFENKFAVETLICVESMGSYVGDMA,2.25
11,EASNCFAIRHFENKFAVETLICVETAEPGVLGQG,inactive
12,EASNCFAIRHFENKFAVETLICVETCCRSTRCGM,-0.309
13,EASNCFAIRHFENKFAVETLICVEVMASVLGWIK,inactive
14,EASNCFAIRHFENKFAVETLICVEVTFTSPGAGW,inactive
15,EASNCFAIRHFENKFAVETLICVEVVWKSRVRIK,-0.622
16,EASNCFAIRHFENKFAVETLICVEWLPSCGSHSR,1.72
17,EASNCFAIRHFENKFAVETLICVEWRTMLISFSW,inactive
18,EASNCFAIRHFENKFAVETLICVEWVTHYHWRSV,inactive
19,EASNCFAIRHFENKFAVETLICVEYSGVHECCWA,-0.12
20,EASNCFAIRHFENKFAVETLICVF,-0.785

row,Sequence,amyloid nucleation score
1,EASNCFAIRHFENKFAVETLICVFAHSSESASVS,inactive
2,EASNCFAIRHFENKFAVETLICVFAYMNTFVESE,inactive
3,EASNCFAIRHFENKFAVETLICVFCDEYITGLRF,6.82
4,EASNCFAIRHFENKFAVETLICVFCLHPRLVVAW,inactive
5,EASNCFAIRHFENKFAVETLICVFCLNSLYMFRI,inactive
6,EASNCFAIRHFENKFAVETLICVFCMAKAVPGEL,5.95
7,EASNCFAIRHFENKFAVETLICVFCYLAKNSR,inactive
8,EASNCFAIRHFENKFAVETLICVFDAVSTKVLVR,-0.273
9,EASNCFAIRHFENKFAVETLICVFECLLRRYLVQ,inactive
10,EASNCFAIRHFENKFAVETLICVFGEYSSWNQLG,5.06
11,EASNCFAIRHFENKFAVETLICVFGGTLGPGVWA,8.03
12,EASNCFAIRHFENKFAVETLICVFGVEGFWYQSW,1.13
13,EASNCFAIRHFENKFAVETLICVFHACICGRTVF,5.99
14,EASNCFAIRHFENKFAVETLICVFHSKGCMSGGW,inactive
15,EASNCFAIRHFENKFAVETLICVFLRYITGVANA,1.62
16,EASNCFAIRHFENKFAVETLICVFLTWVYQMVWT,inactive
17,EASNCFAIRHFENKFAVETLICVFLVPWNTRNVV,inactive
18,EASNCFAIRHFENKFAVETLICVFM,4.72

# Same assay, conditions: random library (experiment): 2
row,Sequence,amyloid nucleation score
1,EASNCFAIRHFENKFAVETLICVDS,-0.135
2,EASNCFAIRHFENKFAVETLICVDSCPDALTSKV,inactive
3,EASNCFAIRHFENKFAVETLICVDSLCAQFVLRS,5.44
4,EASNCFAIRHFENKFAVETLICVDWDFSPFILAV,-0.658
5,EASNCFAIRHFENKFAVETLICVDYWFCFFVRTG,2.96
6,EASNCFAIRHFENKFAVETLICVEDLV,inactive
7,EASNCFAIRHFENKFAVETLICVEELMKGVRVNN,inactive
8,EASNCFAIRHFENKFAVETLICVEFCSPINTDLR,1.69
9,EASNCFAIRHFENKFAVETLICVEHTKSGVQISR,4.4
10,EASNCFAIRHFENKFAVETLICVEISFFHSFDCL,4.76
11,EASNCFAIRHFENKFAVETLICVELGLSFINCVL,3.61
12,EASNCFAIRHFENKFAVETLICVELNRHKTGLPW,3.23
13,EASNCFAIRHFENKFAVETLICVERVCKTKQSQV,inactive
14,EASNCFAIRHFENKFAVETLICVERWSYESDDFT,inactive
15,EASNCFAIRHFENKFAVETLICVERWWKFLYIYH,inactive
16,EASNCFAIRHFENKFAVETLICVESRWKNRLMVH,inactive
17,EASNCFAIRHFENKFAVETLICVESSKLSFIRPW,-0.329
18,EASNCFAIRHFENKFAVETLICVETVWNSPPSFW,4.28
19,EASNCFAIRHFENKFAVETLICVEVYRHILKSFV,-0.174

row,Sequence,amyloid nucleation score
1,EASNCFAIRHFENKFAVETLICVEYVVGACVNSA,inactive
2,EASNCFAIRHFENKFAVETLICVFAFILGGTSAH,0.844
3,EASNCFAIRHFENKFAVETLICVFAMFMVQVIEW,inactive
4,EASNCFAIRHFENKFAVETLICVFAV,inactive
5,EASNCFAIRHFENKFAVETLICVFEVCLDVMSVE,inactive
6,EASNCFAIRHFENKFAVETLICVFEYFSCDGL,1.41
7,EASNCFAIRHFENKFAVETLICVFFAFLGSSDEG,4.64
8,EASNCFAIRHFENKFAVETLICVFFCHDF,7.14
9,EASNCFAIRHFENKFAVETLICVFFNMRLWACHV,inactive
10,EASNCFAIRHFENKFAVETLICVFGGSVHFSLS,7.11
11,EASNCFAIRHFENKFAVETLICVFGSY,8.14
12,EASNCFAIRHFENKFAVETLICVFILHPFPWFCR,inactive
13,EASNCFAIRHFENKFAVETLICVFKSALFTVHGL,inactive
14,EASNCFAIRHFENKFAVETLICVFKTGMLVVVQG,-0.255
15,EASNCFAIRHFENKFAVETLICVFLISDVKMVGE,inactive
16,EASNCFAIRHFENKFAVETLICVFLRCLSLKCYR,inactive
17,EASNCFAIRHFENKFAVETLICVFLVVS,4.34
18,EASNCFAIRHFENKFAVETLICVFLYHHLVVDGG,inactive

# Same assay, conditions: random library (experiment): 3
row,Sequence,amyloid nucleation score
1,EASNCFAIRHFENKFAVETLICVDTCEIVPGLRS,inactive
2,EASNCFAIRHFENKFAVETLICVDTLTLMVRSYG,inactive
3,EASNCFAIRHFENKFAVETLICVDYSSWNCWGQW,7.95
4,EASNCFAIRHFENKFAVETLICVE,inactive
5,EASNCFAIRHFENKFAVETLICVECVRCG,2.91
6,EASNCFAIRHFENKFAVETLICVEESARSRDG,inactive
7,EASNCFAIRHFENKFAVETLICVEEVVQRAAHDG,inactive
8,EASNCFAIRHFENKFAVETLICVEFQARCGDQVS,inactive
9,EASNCFAIRHFENKFAVETLICVEGNAAWASRRG,2.96
10,EASNCFAIRHFENKFAVETLICVEITPVSHWLRK,inactive
11,EASNCFAIRHFENKFAVETLICVELRRSRGHC,0.279
12,EASNCFAIRHFENKFAVETLICVEPIPQVARRTT,0.937
13,EASNCFAIRHFENKFAVETLICVERWNCSGEWQR,0.749
14,EASNCFAIRHFENKFAVETLICVEVCWDLGAWSE,inactive
15,EASNCFAIRHFENKFAVETLICVEVELGLAESVP,inactive
16,EASNCFAIRHFENKFAVETLICVEVLFDVRICGA,inactive
17,EASNCFAIRHFENKFAVETLICVEWAWSSSTVVF,0.379
18,EASNCFAIRHFENKFAVETLICVEYVRTALDQLS,inactive
19,EASNCFAIRHFENKFAVETLICVFCCVVTGSGAS,4.73
20,EASNCFAIRHFENKFAVETLICVFDK,inactive
21,EASNCFAIRHFENKFAVETLICVFGPIWTMSTET,8.53
22,EASNCFAIRHFENKFAVETLICVFGPPSALRPQA,5.81
23,EASNCFAIRHFENKFAVETLICVFGYVLVMGMSG,inactive
24,EASNCFAIRHFENKFAVETLICVFIDYTQGYWKE,inactive
